Measured values taken from PubChem BioAssay AID624417 (National Center for Advancing Translational Sciences (NCATS), 2012).
Hit rate of the full screen: of about 410,000 compounds, about 6,400 (1.6%) were called active. The inconclusive results got no clear call from the source; some entries with a clear call stand among them for comparison. The call rests on the fitted dose curve; in most records, active means well fitted inhibition curve with a large enough effect; inconclusive means small, poorly fitted or top-dose-only effect; inactive means no such curve, though single readings can be large or run the other way. Potencies of inconclusive entries are left out as doubtful fits.

The compounds below were run against Glucagon-like peptide 1 receptor (Homo sapiens) (UniProt P43220) (assay: qHTS of GLP-1 Receptor Inverse Agonists (Inhibition Mode)). Conditions: HEK293 GLP-1R CRE-luciferase, luminescence, 24 h, GLP-1R form is constitutively active; activity change, negative = inhibition: at 38.3 µM (top of the series) unless noted.
In short: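 Stable HEK293 clone (constitutively active GLP-1R + cAMP-response luciferase); 200 cells/uL plated, 12 h pre-culture, compound 24 hr, 37 deg C/5% CO2; detection reagent 12 min RT; luminescence.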
Further: nearly all actives have a fitted effect of over 55% in size.
On the % scale 0 is the no-effect control and ±100 the full control effect; potency means the concentration at half of the fitted maximal effect; tags describe the fitted curve by direction and shape.

UniProt P43220, sequence (P43220 whole entry, looked up): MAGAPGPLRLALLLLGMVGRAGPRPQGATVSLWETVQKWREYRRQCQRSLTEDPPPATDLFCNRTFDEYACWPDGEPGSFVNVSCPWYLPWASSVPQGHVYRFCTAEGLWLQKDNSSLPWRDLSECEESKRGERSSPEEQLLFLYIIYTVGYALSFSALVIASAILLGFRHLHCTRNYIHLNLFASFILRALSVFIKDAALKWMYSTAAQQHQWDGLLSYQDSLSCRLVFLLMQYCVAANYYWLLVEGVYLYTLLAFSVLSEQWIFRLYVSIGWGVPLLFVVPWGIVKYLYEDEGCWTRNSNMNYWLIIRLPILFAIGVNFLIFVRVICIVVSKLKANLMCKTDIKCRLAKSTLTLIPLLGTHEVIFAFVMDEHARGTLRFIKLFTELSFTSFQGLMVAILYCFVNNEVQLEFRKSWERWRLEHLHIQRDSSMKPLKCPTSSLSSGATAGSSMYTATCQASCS

Structure (SMILES)	Potency	activity change, negative = inhibition
CCOc1cc(N2CCOCC2)c(OCC)cc1NC(=O)C(C)Oc1ccccc1 (configuration not stated)	inconclusive [inhibitor, full curve, poor fit]	
Cc1onc(-c2ccccc2)c1C(=O)OCCOc1ccccc1F	inconclusive [inhibitor, partial curve, poor fit]	
COc1ccc(-c2nc3ccncc3[nH]2)cc1OC		inactive: 84.2%
O=C(COc1ccccc1Cl)NC(=S)Nc1cccc(NC(=O)c2ccccc2Cl)c1	inconclusive [inhibitor, partial curve, poor fit]	
COc1ccc(OCC(=O)N2CCC(Cc3ccccc3)CC2)cc1	inconclusive [inhibitor, partial curve, poor fit]	
O=C(CN1C(=O)COc2ccccc21)c1ccc(Cl)cc1	inconclusive [inhibitor, single point]	
COc1ccc(/C=N\NC(=O)c2ccccc2[N+](=O)[O-])cc1COc1c(F)c(F)c(F)c(F)c1F	inconclusive [inhibitor, partial curve, poor fit]	
Cc1ccc(S(=O)(=O)N2CCC(C(=O)OC(C)C(=O)NC3CCCCC3C)CC2)cc1 (configuration not stated)	inconclusive [inhibitor, partial curve, poor fit]	
O=C(Nc1cccc(C(F)(F)F)c1)c1ccc2sc([C@H]3C[C@H](O)[C@@H](CO)O3)nc2c1	inconclusive [inhibitor, single point]	
COc1ccc(C(=O)CSc2nc(C)cc(=O)[nH]2)cc1		inactive: 15.9%
CCOc1ccc(NC(=O)c2cn(C3CCCCC3)c(=O)c3c2c2ccccc2n3C)cc1		inactive: 6.66%
CCOCCN1CCN(C2c3ccccc3CSc3ccccc32)CC1 (configuration not stated)	inconclusive [inhibitor, partial curve, poor fit]	
Cc1ccc(-c2nnc(SCC(=O)NC(C)(C)C)nc2-c2ccc(C)cc2)cc1	active: 11.2 µM	
COc1ccc(CCC(C)N2CCC(Oc3ccc(C(=O)N4CCCC4)cc3)CC2)cc1 (configuration not stated)	inconclusive [inhibitor, single point]	
CCN(CC)c1ccc(/C=N/NC(=O)c2ccccn2)cc1	inconclusive [inhibitor, partial curve]	
Cc1ccc(Sc2ccc(N3CCCC(C(=O)Nc4ccc(F)cc4)C3)nn2)cc1 (configuration not stated)	inconclusive [inhibitor, single point]	
COc1ccc(OC2CCN(S(=O)(=O)c3ccccc3)CC2)cc1	inconclusive [inhibitor, single point]	
CCOc1ccc(-n2c(N)c(C(=O)NCc3ccco3)sc2=S)cc1	inconclusive [inhibitor, single point]	
O=S1(=O)CCOC[C@H](CC2CCCCC2)N1Cc1ccc(F)cc1	inconclusive [inhibitor, single point]	
COc1ccc(F)c(C2C(C#N)=C(N)Oc3n[nH]c(C(C)(C)C)c32)c1 (configuration not stated)	inconclusive [inhibitor, partial curve, poor fit]	
O=C(c1cccc(S(=O)(=O)NCc2ccccc2)c1)N1CCN(c2ccccc2)CC1	inconclusive [inhibitor, single point]	

Structure (SMILES)	Potency	activity change, negative = inhibition
CC(C)c1ccc(C2NC(=S)NC3=C2C(=O)CC(C)(C)C3)cc1 (configuration not stated)	inconclusive [inhibitor, single point]	
Cc1ccc([C@H]2C[C@H](n3cc(C4CC4)nn3)[C@@H](O)CN2CC2CCCCC2)cc1	inconclusive [inhibitor, single point]	
CN(C)C(=O)c1cc(F)ccc1Sc1cc(Cl)ccc1Cl	inconclusive [inhibitor, single point]	
CC(N)c1csc(NC(=O)Nc2cccc(C(F)(F)F)c2)n1 (configuration not stated)	inconclusive [inhibitor, partial curve, poor fit]	
COc1ccc(NC(=O)COc2ccc(C)c(C)c2)cc1S(=O)(=O)N1CCCCC1	inconclusive [inhibitor, partial curve, poor fit]	
O=C(C[C@H]1C(=O)N(c2ccccc2)C[C@@H]1Cc1ccccc1)Nc1ccc(Br)cc1	inconclusive [inhibitor, single point]	
Cc1ccc(CN2CCN(/N=C/C(Br)=C\c3ccccc3)CC2)cc1	inconclusive [inhibitor, partial curve, poor fit]	
Cc1nnsc1-c1c(C(=O)Oc2ccccc2)c(C)nn1-c1ccccc1	inconclusive [inhibitor, single point]	
O=C(CCCSc1nc(-c2ccco2)cc(C(F)(F)F)n1)NCC1CCCO1 (configuration not stated)	inconclusive [inhibitor, single point]	
COc1ccc2nc(SCC(O)c3cccc(Br)c3)[nH]c2c1 (configuration not stated)		inactive: -17.4%
CCCS(=O)(=O)c1nc(S(=O)(=O)c2ccc(C)cc2)c(NCCCOC(C)C)s1	inconclusive [inhibitor, single point]	
O=C(c1ccco1)N(Cc1ccc([N+](=O)[O-])cc1)c1ccc(Cl)cc1	inconclusive [inhibitor, single point]	
CCCCCOC(=O)CSc1nc2sc3c(c2c(=O)n1-c1ccccc1)CC(C)(CC)OC3 (configuration not stated)		inactive: -10.1%
Cc1nc2scc(C)n2c(=O)c1S(=O)(=O)Nc1ccc(OC(F)(F)F)cc1	inconclusive [inhibitor, partial curve, poor fit]	
O=C(Nc1cc(-c2ccccc2F)nn1-c1ccccc1)c1ccccc1Br	inconclusive [inhibitor, partial curve, poor fit]	
N#Cc1ccc2ccn(CC(=O)NC3CCCCCC3)c2c1		inactive: -29.7%
COc1ccccc1C(=O)Oc1ccc(C(C)(C)C)cc1	inconclusive [inhibitor, single point]	
Cc1ccc(NC(=O)CSCC(=O)N(C)Cc2ccc(Cl)c(Cl)c2)cc1	inconclusive [inhibitor, single point]	
O=C(COc1ccccc1F)Nc1c(C(=O)Nc2cccc(F)c2)oc2ccccc12		inactive: 2.92%
CC(=O)c1cc(NC(=O)c2cccc(C(F)(F)F)c2)c(=O)oc1C		inactive: -4.81%
CCN(CC)c1ccc(/C=N/N=C(c2ccccc2)c2ccccc2)c(O)c1	inconclusive [inhibitor, partial curve, poor fit]	

Structure (SMILES)	Potency	activity change, negative = inhibition
O=C(O)CCn1c2c(c3ccccc31)CCCC2	inconclusive [inhibitor, single point]	
O=C(NCc1ccccc1)c1ccc(S(=O)(=O)Nc2cccc(C(F)(F)F)c2)cc1	active: 10 µM	
CC(NC(=O)Nc1ccc([N+](=O)[O-])cc1)C(c1cccs1)N1CCCC1 (configuration not stated)	inconclusive [inhibitor, single point]	
CCCn1cc(S(=O)(=O)c2ccc(OC)cc2)c(=O)c2cc(F)c(N3CCCC(C)C3)cc21 (configuration not stated)	inconclusive [inhibitor, single point]	
CCc1ccc(OCC(=O)Nc2ccc(CN3CCCCC3)cc2)cc1	inconclusive [inhibitor, partial curve, poor fit]	
COc1ccccc1N(CC(=O)N/N=C/c1ccc(OCC(=O)NCc2ccco2)cc1)S(=O)(=O)c1ccc(C)cc1	inconclusive [inhibitor, partial curve]	
O=C(N/N=C/c1ccco1)c1cccc(NC(=O)c2ccccc2Cl)c1	inconclusive [inhibitor, single point]	
COc1cccc(CC2(CO)CCCN(CC3=Cc4cc(Cl)ccc4OC3)C2)c1 (configuration not stated)	inconclusive [inhibitor, single point]	
Cc1cccnc1C(NC(=O)C1CCN(CCOc2ccc(F)cc2)CC1)c1ccc(F)cc1 (configuration not stated)	inconclusive [inhibitor, partial curve, poor fit]	
COc1ccc(CN2C(=O)C(CC(C)C)Nc3ncnc(N4CCN(c5ccccc5)CC4)c32)cc1 (configuration not stated)	inconclusive [inhibitor, single point]	
COc1ccc(C(=O)NCCn2cc(SCC(N)=O)c3ccccc32)cc1	inconclusive [inhibitor, partial curve, poor fit]	
Cc1ccc(CN2CCC(c3cc(-c4cccs4)n[nH]3)CC2)cc1	inconclusive [inhibitor, single point]	
Cc1cccc(-c2noc(CCCC(=O)NC3CCCC3)n2)c1	inconclusive [inhibitor, single point]	
CC(C)C(=O)N1CCC2(CC1)Oc1ccc(Cl)cc1C(=O)C21CC(c2ccc(Cl)cc2)=NO1 (configuration not stated)	inconclusive [inhibitor, partial curve]	
COc1ccc(-n2c(SCc3ccccc3F)nc3c([nH]c4ccccc43)c2=O)cc1OC		inactive: -18.1%
Cc1cc(C)n(-c2nnc(SCC(=O)NC3CCCC3)c3ccccc23)n1	inconclusive [inhibitor, single point]	
O=C(CSc1c2c(nc3cc(Cl)ccc13)CCCC2)N1CCN(c2ccccc2)CC1	inconclusive [inhibitor, single point]	
Cc1noc(-c2ccccc2)c1NC(=O)Nc1ccc(Cl)cc1	inconclusive [inhibitor, partial curve]	
S=c1[nH]nc(-c2ccncc2)n1CC1CCCO1 (configuration not stated)		inactive: 7.32%
N#C/C(=C/c1cn(-c2ccccc2)nc1-c1cccc(OCc2ccccc2)c1)C(=O)NCCCn1ccnc1	inconclusive [inhibitor, partial curve, poor fit]	
